Data as given in PubChem BioAssay AID588855 (National Center for Advancing Translational Sciences (NCATS), 2011).
Several values for one entry are separate records, joined by “and”; a condition that tells them apart may be missing. Identical values can stand only once. Hit rate of the full screen: of about 410,000 compounds, about 5,000 (1.2%) were called active. Inconclusive results, whose numbers are uncertain, are shown with a selection of clear calls. Calls follow the shape of the dose curve; as a rule, active = well fitted inhibition curve with a large enough effect; inconclusive = small, poorly fitted or top-dose-only effect; inactive = no such curve, though single readings can be large or run the other way. Potencies of inconclusive entries are doubtful fits and often do not repeat.
Potency is read from the fitted curve at half-maximal effect; tags tell the direction and shape of the fitted curve.

Test: qHTS for Inhibitors of TGF-b; also: nearly all actives have a fitted effect of over 65% in size
Conditions: HepG2 CAGA-GFP TGF-b/SMAD3 reporter, GFP fluorescence, 18 h, TGF-beta stimulated, 500 pg/mL final; series mostly up to 46.1 µM
In short: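 Cell-based qHTS in HEPG2 carrying a CAGA-GFP Smad reporter; compounds added before 500 pg/mL final TGF-beta, 18 h incubation at 37 degrees C, GFP fluorescence quantified per cell by imaging cytometry.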
With `CN(C)CCN1CCN(C2CN(Cc3ccc([N+](=O)[O-])cc3)S(=O)(=O)C2)CC1` (centres undefined) the Potency was “inactive”. For `O=C(Cn1sc2ccccc2c1=O)Nc1ccccc1`, the Potency was active: 17.8 µM. In the case of `COc1ccc(CCC(=O)N2CCN(S(=O)(=O)c3cccs3)CC2)cc1`, the Potency was inconclusive: 11.2 µM [inhibitor, single point]. In the case of `CC(=O)Nc1ccc(C(=O)N2CCOCC2c2cc(C(=O)NCc3ccccc3)no2)cc1` (centres undefined), the Potency was “inactive”. In the case of `O=[N+]([O-])c1cc([N+](=O)[O-])c2cccnc2c1Oc1ccccc1O`, the Potency was “inactive”. In the case of `O=C(Nc1ccc(Cc2ccncc2)cc1)C1CCC(N2C(=O)C3C4C=CC(C5CC45)C3C2=O)CC1` (centres undefined), the Potency was inconclusive: 11.2 µM [inhibitor, partial curve]. For `O=C(CC1N=C2c3ccccc3N=C(SCc3cccc(F)c3)N2C1=O)NCc1ccc2c(c1)OCO2` (centres undefined), the Potency was inconclusive: 10 µM [inhibitor, partial curve]. In the case of `COc1ccc(NC(=O)c2ccc(Cl)c(S(=O)(=O)N3CC(C)OC(C)C3)c2)cn1` (centres undefined), the Potency was inconclusive: 7.94 µM [inhibitor, partial curve]. In the case of `Cc1ccc2c(c1)nnn2C1CCN(CC(=O)N2c3ccccc3CC2C)CC1` (centres undefined), the Potency was inconclusive: 22.4 µM [inhibitor, single point]. With `CCN(Cc1ccccc1)C(c1cccs1)c1nnnn1C1CCCCC1` (centres undefined) the Potency was inconclusive: 35.5 µM [inhibitor, single point]. In the case of `O=C(CN1CCC(n2nnc3cc(F)ccc32)CC1)N1CCCc2ccccc21`, the Potency was “inactive”. For `O=C(O)c1ccc(NC(=O)c2cn(-c3ccccc3)nc2-c2ccc(Br)cc2)cc1`, the Potency was inconclusive: 35.5 µM [inhibitor, single point] and inconclusive: 15.8 µM [inhibitor, single point]. In the case of `Cc1nc(Nc2ccc(S(=O)(=O)N3CCCCC3C)cc2)c2nnn(Cc3ccccc3)c2n1` (centres undefined), the Potency was inconclusive: 15.8 µM [inhibitor, single point]. In the case of `C[C@]12CCC(=O)C[C@@H]1CC[C@@H]1[C@@H]2CC[C@]2(C)C=CC[C@@H]12`, the Potency was “inactive”. For `O=C(c1cc2cc(Cl)ccc2[nH]1)N1CCc2ccccc2C1`, the Potency was inconclusive: 1.12 µM [inhibitor, full curve]. With `Cc1ccc(NC(=O)CCNS(=O)(=O)c2cc(Br)cnc2N)cc1Cl` the Potency was “inactive”. With `CC(=O)c1ccc(C(=O)N2CCc3c([nH]c4ccccc34)C2c2cccc(C)n2)s1` (centres undefined) the Potency was “inactive”. For `Cc1ccc2c(c1C)NC(=O)CC2c1ccc(Cl)cc1Cl` (centres undefined), the Potency was inconclusive: 6.31 µM [inhibitor, single point]. For `COc1ccccc1P(=O)(c1ccccc1)c1ccccc1`, the Potency was “inactive”. With `CCc1ccc(OCC(=O)Nc2ccc(-c3nc4ncccc4o3)cc2)cc1` the Potency was “inactive”. In the case of `Cc1ccc(CS(=O)(=O)c2ncc(Cl)c(C(=O)Nc3nnc(C)s3)n2)cc1`, the Potency was inconclusive: 35.5 µM [inhibitor, single point]. In the case of `COc1ccc(NC(=O)ON=C2c3ccccc3-c3ccccc32)cc1`, the Potency was inconclusive: 35.5 µM [inhibitor, single point]. In the case of `C#CCNC(=O)C1=C[C@H](c2ccc(C(F)(F)F)cc2)C[C@H](OCCCCO)O1`, the Potency was inconclusive: 35.5 µM [inhibitor, single point]. In the case of `CCCN1CCN(C(=O)c2oc3ccccc3c2NC(=O)COc2ccc(OC)cc2)CC1`, the Potency was “inactive”. With `CC(C)CCC(CCNCc1ccccn1)c1ccc2c(c1)OCO2` (centres undefined) the Potency was inconclusive: 20 µM [inhibitor, single point]. For `Cc1ccc(-c2nc3ccc(Br)cn3c2Cc2ccsc2)cc1`, the Potency was “inactive”. In the case of `COc1ccc(-c2noc(COc3ccc(Br)cc3C)n2)cc1OC`, the Potency was “inactive”. For `CC1(C)CC2CC(C)(CN2S(=O)(=O)c2ccc(C(=O)Nc3cccc(S(=O)(=O)N4CCOCC4)c3)cc2)C1` (centres undefined), the Potency was inconclusive: 20 µM [inhibitor, partial curve, poor fit]. For `O=C(Cc1cccc(NC(=O)C2CCCN(C(=O)C3CCCCC3)C2)c1)Nc1cccc(C(=O)N2CCCC2)c1` (centres undefined), the Potency was inconclusive: 7.08 µM [inhibitor, full curve]. In the case of `C[C@@H](NC(=O)c1nc[nH]c1C(=O)N1CCN(c2ccccc2)CC1)c1ccccc1`, the Potency was inconclusive: 14.1 µM [inhibitor, single point]. For `O=C(CCNS(=O)(=O)c1ccc(OC(F)(F)F)cc1)N1CCN(S(=O)(=O)c2cccc(F)c2)CC1`, the Potency was inconclusive: 2.82 µM [inhibitor, single point]. For `CC(C)(C)c1ccc(-n2ncc3c2CCCC3NC(=O)c2ccncc2)cc1` (centres undefined), the Potency was inconclusive: 6.31 µM [inhibitor, single point]. For `COc1ccc(-c2noc(=O)n2Cc2ccccc2Cl)cc1`, the Potency was “inactive”. With `Cn1c(Oc2ccccc2NCc2cc(Br)ccc2O)cc(=O)n(C)c1=O` the Potency was inconclusive: 35.5 µM [inhibitor, partial curve, poor fit]. For `O=C(Nc1ccc(OC(F)F)cc1)c1cc[n+]([O-])cc1`, the Potency was “inactive”. In the case of `Cc1onc(-c2ccccc2)c1C(=O)OCC(=O)Nc1ccc(C#N)cc1`, the Potency was inconclusive: 35.5 µM [inhibitor, single point]. For `COC(=O)CCCC(=O)N1CCCC(CCC(=O)NCc2ccc(F)c(F)c2)C1` (centres undefined), the Potency was inconclusive: 5.62 µM [inhibitor, single point]. With `COc1ccc(NC(=O)CN(C)S(=O)(=O)c2cnc[nH]2)cc1Cl` the Potency was inconclusive: 35.5 µM [inhibitor, single point]. With `CSCCC1NC(=O)N(CC(=O)Nc2ccc3c(c2)OCCO3)C1=O` (centres undefined) the Potency was “inactive”. In the case of `O=C(CN1C(=O)NC2(CCCc3ccccc32)C1=O)Nc1cccc(S(=O)(=O)N2CCCCC2)c1` (centres undefined), the Potency was inconclusive: 22.4 µM [inhibitor, single point]. For `CCOc1nc(NC(C)C)nc(NC(C)C)n1`, the Potency was inconclusive: 6.31 µM [inhibitor, single point]. With `O=C(/C=C/c1ccc([N+](=O)[O-])cc1)Nc1cccc(S(=O)(=O)NC2=NCCCCC2)c1` the Potency was inconclusive: 35.5 µM [inhibitor, single point]. In the case of `COc1ccc(N(CC(=O)N2CCc3ccccc32)S(=O)(=O)c2c(C)n[nH]c2C)cc1`, the Potency was “inactive”. With `NC(=S)NN=C(c1ccc(F)cc1)C1CC1` the Potency was inconclusive: 28.2 µM [inhibitor, single point]. For `O=C(Nc1cc(Cl)cc(Cl)c1)c1ccc(F)c(S(=O)(=O)NC2CCCCC2)c1`, the Potency was inconclusive: 25.1 µM [inhibitor, single point]. For `O=C(CCn1c(=O)sc2ccccc21)Nc1nc2ccccc2s1`, the Potency was “inactive”. For `CCc1cc(SC#N)ccc1N`, the Potency was “inactive”. In the case of `CC1CCCC(NC(=O)c2nn(C)c3c2CS(=O)(=O)c2ccccc2-3)C1C` (centres undefined), the Potency was “inactive”. In the case of `O=C(NCCS(=O)(=O)N1CCN(c2ccc(F)cc2)CC1)C1CC(=O)N(c2ccc(F)cc2)C1` (centres undefined), the Potency was “inactive”. In the case of `O=C(NNC(=O)C12CC3CC(CC(C3)C1)C2)c1ccccc1O`, the Potency was inconclusive: 5.62 µM [inhibitor, single point]. In the case of `C[C@H]1CCC[C@@]2(O[C@@H](CCO)C[C@@H](O)[C@@H]2O)O1`, the Potency was inconclusive: 12.6 µM [inhibitor, single point]. In the case of `CCOC(=O)c1ccc2c(c1)N(Cc1ccccc1)C(=O)c1ccccc1S2`, the Potency was inconclusive: 35.5 µM [inhibitor, single point]. In the case of `COC(=O)C[C@H]1c2cc(C(F)(F)F)ccc2S(=O)(=O)N1C(C)(C)C`, the Potency was inconclusive: 11.2 µM [inhibitor, single point]. In the case of `CC1(Cc2cc(Cl)ccc2C(F)(F)F)C(=O)Nc2cc(C(F)(F)F)ccc21` (centres undefined), the Potency was inconclusive: 35.5 µM [inhibitor, single point]. In the case of `CC(C)CCn1c(=O)c2sccc2n2c(CCCC(=O)NC3CCC(C)CC3)nnc12` (centres undefined), the Potency was inconclusive: 0.126 µM [inhibitor, full curve, poor fit]. In the case of `Cc1ccc(C)c(N2CCN(S(=O)(=O)c3cnc(N)nc3)CC2)c1`, the Potency was inconclusive: 35.5 µM [inhibitor, single point]. For `Nc1ccccc1Sc1ccccc1[N+](=O)[O-]`, the Potency was “inactive”. For `COc1ccc(C(C)(C)NC(=O)C2CCC(=O)N(CCCN3CCCC3=O)C2)cc1` (centres undefined), the Potency was “inactive”. For `COc1cccc(CNc2ncnc3ccc(-c4c(C)noc4C)cc23)c1`, the Potency was inconclusive: 7.94 µM [inhibitor, partial curve, poor fit]. In the case of `CCCCNC(=O)c1nc(C2CCN(S(=O)(=O)c3c(F)cccc3F)CC2)oc1-c1ccccc1`, the Potency was inconclusive: 1.41 µM [inhibitor, full curve]. In the case of `COc1ccc(OCC(=O)Nc2ccccc2C(=O)OCc2cc(=O)n3nc(C)sc3n2)cc1`, the Potency was “inactive”. For `COc1cc(-c2nc(-c3cccc(Cl)c3)c(-c3ccccc3)[nH]2)cc(OC)c1OC`, the Potency was inconclusive: 7.94 µM [inhibitor, partial curve]. In the case of `Cc1cccc(-c2n[nH]c(=S)n2/N=C/c2ccc(C)s2)c1`, the Potency was “inactive”. For `O=C(OC(C(=O)NCc1cccs1)c1ccccn1)c1cccs1` (centres undefined), the Potency was “inactive”. For `COC(=O)c1ccc(CSc2nc3c(c(=O)[nH]2)CCC3)cc1`, the Potency was “inactive”. For `C=C(C(=O)O)c1ccc2ccccc2c1`, the Potency was “inactive”. With `CCN(CC)C(=O)Cn1cc(/C=C(\C#N)C(=O)N2CCN(c3ccccc3)CC2)c2ccccc21` the Potency was inconclusive: 1.26 µM [inhibitor, single point]. In the case of `CC1CCC(NC(=O)c2ccc(CS(=O)(=O)c3c(Cl)cccc3Cl)o2)CC1` (centres undefined), the Potency was inconclusive: 11.2 µM [inhibitor, single point]. In the case of `Cc1oc(-c2ccccc2Cl)nc1CS(=O)CC(=O)NC1CC1` (centres undefined), the Potency was “inactive”.
